The record followed here is patent publication US20040120949A1, “Compositions and methods for treating cancer using cytotoxic CD44 antibody immunoconjugates and radiotherapy” (Boehringer Ingelheim International GmbH, priority 2002, published 2004).

In the test the test system is CD44v6. Nature of the test: Antigen binding affinity of humanised VFF-18 versions. The arrangement: species or system human.

B1: BIWA 8: Humanised CD44v6 antibody comprising light chains SEQ ID NO:8 and heavy chains SEQ ID NO:6 (antibody)
heavy: EVQLVESGGGLVKPGGSLRLSCAASGFTFSSYDMSWVRQAPGKGLEWVSTISSGGSYTYYLDSIKGRFTISRDNAKNSLYLQMNSLRAEDTAVYYCARQGLDYWGRGTLVTVSS[human IgG1 constant region cut from this listing]
light: EIVLTQSPATLSLSPGERATLSCSASSSINYIYWLQQKPGQAPRILIYLTSNLASGVPARFSGSGSGTDFTLTISSLEPEDFAVYYCLQWSSNPLTFGGGTKVEIKRTVAAPSVFIFPPSDEQLKSGTASVVCLLNNFYPREAKVQWKVDNALQSGNSQESVTEQDSKDSTYSLSSTLTLSKADYEKHKVYACEVTHQGLSSPVTKSFNRGEC
modifications: Humanised Murine Antibody BIWA 4 Heavy Chain; Humanised Murine Antibody BIWA 8 Light Chain
As for B1, the “Antigen binding affinity (comparative)” value is “higher binding affinity than BIWA 4”.
